# Reference: US20230301999A1, “METHODS OF TREATING GOUT” (Horizon Therapeutics USA, Inc., priority 2020, published 2023)
# Test system: adult patients with uncontrolled gout
# Assay: Open-label study: number of joints affected by tophi
# Assay type: in vivo, human
# Conditions: mITT population
# From the text: Estimation of the mean change from baseline in number of joints affected by tophi in subjects receiving pegloticase with MTX.
substance,measurement,setting,value
pegloticase,"Number of joints affected by tophi, change from baseline, mean (SD)","Week 24, n=9",−4.7 (6.36)
same,"Number of joints affected by tophi, change from baseline, median","Week 24, n=9",−3.0
same,"Number of joints affected by tophi, observed, mean (SD)","Week 24, n=9",4.0 (3.64)
same,"Number of joints affected by tophi, observed, median","Week 24, n=9",3.0
same,"Number of joints affected by tophi, change from baseline, mean (SD)","Week 36, n=4",−11.5 (7.33)
same,"Number of joints affected by tophi, change from baseline, median","Week 36, n=4",−9.0
same,"Number of joints affected by tophi, observed, mean (SD)","Week 36, n=4",3.3 (3.86)
same,"Number of joints affected by tophi, observed, median","Week 36, n=4",1.5
same,"Number of joints affected by tophi, change from baseline, mean (SD)","Week 52/ET, n=2",−17.0 (9.90)
same,"Number of joints affected by tophi, change from baseline, median","Week 52/ET, n=2",−17.0
same,"Number of joints affected by tophi, observed, mean (SD)","Week 52/ET, n=2",5.0 (2.83)
same,"Number of joints affected by tophi, observed, median","Week 52/ET, n=2",5.0
